Our source for the max response, AC50 and IC50 values is PubChem BioAssay (NCATS).

“And” between values parts separate entries of the source, which are not always exact repeats. Identical values can stand only once. This is one part of the list. The main result of the screen is listed elsewhere. These columns were measured beside it and carry no call. Compounds called inactive in the main read-out are mostly missing here. For part of these data: The note in brackets gives the kind of curve behind each potency; many fits are weak.

A short description of assay [1]: qHTS Assay for Lipid Storage Modulators (AID 1519). The settings on record: Drosophila S3 cells, BODIPY lipid droplet/cell ratio, laser cytometry, cells loaded with oleic acid. The method in brief: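 Cells seeded at 5,000 per well were treated with compounds over a concentration series and loaded with oleic acid (400 uM, as added). Lipid droplet fluorescence (488 nm excitation, 500-530 nm channel) was read by laser-scanning cytometry and normalized to 20 uM Triacsin C.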
(In general: In qHTS, concentration-response curves come from the screen itself.)

A short description of assay [2]: qHTS assay for small molecule antagonists of androgen receptor signaling (AID 588516). The settings on record: AR-UAS-bla HEK293, beta-lactamase ratio, antagonist mode, 16 h. The method in brief: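 Antagonist-mode qHTS: inhibition of R1881 (10 nM)-driven beta-lactamase expression in GripTite HEK 293 cells is measured after 16 h; values are Hill-derived IC50s normalized between R1881 and DMSO wells.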

A short description of assay [3]: qHTS assay for small molecule antagonists of peroxisome proliferator-activated receptor gamma signaling (AID 588537). The settings on record: HEK293 PPARg-UAS-bla, beta-lactamase ratio, antagonist mode; measured here: W460 blue channel. The method in brief: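 Compounds are tested as concentration series for inhibition of rosiglitazone-driven (50 nM) reporter expression in GeneBLAzer PPAR-gamma-UAS-bla HEK293 cells. After 16 h at 37 C, CCF4 substrate is added for 2 h at room temperature and blue/green fluorescence is measured.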

The nature of assay [4]: qHTS assay for small molecule agonists of retinoid X receptor alpha signaling (AID 588544). The settings on record: HEK293T RXRa-UAS-bla, beta-lactamase reporter, 18 h; 530 nm emission.
Assay [5] is described as follows: qHTS assay for small molecule antagonists of retinoid X receptor alpha signaling (AID 588546).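 Note: cells stimulated with 9-cis-retinoic acid as agonist; % is set by controls: 0 for no effect and ±100 for the full control effect.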 The note with it: HEK293T RXRa-UAS-bla, beta-lactamase ratio, antagonist mode; measured here: W530 green channel, cytotoxicity proxy. The method in brief:
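Beta-lactamase reporter inhibition, read as CCF4 fluorescence ratio (ex 405, em 460/530 nm) after 2 h at RT. HEK293T UAS-bla cells, 2500/well, were stimulated with 9-cis-RA at 500 or 100 nM final alongside test compound for 18 h at 37 C.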

Assay [6] can be described thus: A High-Content qHTS Against Drug Library for the Identification of Small Molecules that Inhibit DYT1 Early Onset Primary Dystonia-Associated Cell Pathology (AID 1645839). The settings on record: HEK293 Flp-In EGFP-delE TorsinA, punctate imaging, 48 h; measured here: cell count cytotoxicity. The method in brief: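 Induced EGFP-delE TorsinA cells are imaged after 48 h of compound treatment. Punctate fusion-protein distribution gives the %pathology value, while nuclei counts flag toxicity. Wild-type EGFP-hTOR1A cells define the normal pattern.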

Assay [7] addresses Histamine N-methyltransferase (Homo sapiens) (UniProt P50135). The assay is described as follows: Confirmatory Screen for Target Class Profiling of Small Molecule Inhibitors of Methyltransferases (AID 1745852).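 Note: inhibitor potency for blocking SAH production.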 The settings on record: MTase-Glo luminescence, SAH detection, recombinant enzyme; measured here: HNMT inhibition potency.
Sequence of UniProt P50135 (P50135 whole entry, looked up): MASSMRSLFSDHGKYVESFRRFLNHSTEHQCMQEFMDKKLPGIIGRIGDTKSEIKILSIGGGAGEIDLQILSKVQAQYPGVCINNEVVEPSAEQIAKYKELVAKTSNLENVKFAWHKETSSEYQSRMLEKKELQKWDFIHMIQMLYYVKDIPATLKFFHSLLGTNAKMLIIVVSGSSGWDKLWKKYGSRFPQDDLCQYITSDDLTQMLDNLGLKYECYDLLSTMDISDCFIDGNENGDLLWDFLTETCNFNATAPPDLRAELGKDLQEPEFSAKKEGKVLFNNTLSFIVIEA
Assay [8] deals with Nicotinamide N-methyltransferase (Homo sapiens) (UniProt P40261). Described as above. The note with it: MTase-Glo luminescence, SAH detection, recombinant enzyme; measured here: NNMT inhibition potency.
Sequence of UniProt P40261 (P40261 whole entry, looked up): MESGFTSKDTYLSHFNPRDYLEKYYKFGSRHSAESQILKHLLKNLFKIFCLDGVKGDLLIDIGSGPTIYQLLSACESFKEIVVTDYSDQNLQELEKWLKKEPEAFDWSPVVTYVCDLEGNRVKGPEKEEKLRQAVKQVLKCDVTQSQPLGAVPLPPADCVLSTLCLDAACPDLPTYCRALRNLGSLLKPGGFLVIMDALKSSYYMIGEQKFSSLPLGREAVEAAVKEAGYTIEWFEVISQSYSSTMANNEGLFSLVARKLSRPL
Assay [9] addresses Phenylethanolamine N-methyltransferase (Homo sapiens) (UniProt P11086). Described as above. The note with it: MTase-Glo luminescence, SAH detection, recombinant enzyme; measured here: PNMT inhibition potency.
Sequence of UniProt P11086 (P11086 whole entry, looked up): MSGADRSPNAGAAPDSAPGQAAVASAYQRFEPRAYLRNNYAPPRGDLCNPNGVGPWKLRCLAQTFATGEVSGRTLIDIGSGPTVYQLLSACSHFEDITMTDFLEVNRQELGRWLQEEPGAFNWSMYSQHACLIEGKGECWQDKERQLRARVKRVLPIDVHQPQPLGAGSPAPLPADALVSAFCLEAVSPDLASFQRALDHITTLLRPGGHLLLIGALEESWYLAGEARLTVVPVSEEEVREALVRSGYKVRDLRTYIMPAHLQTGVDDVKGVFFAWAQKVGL
Assay [10] can be described thus: NCATS anti-infectives library activity on the primary C. elegans qHTS viability assay (AID 1745855). The note with it: C. elegans worm area imaging. The method in brief:
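GFP read-out by 488 nm laser cytometry at day 0, 3 and 7, gated on object perimeter, area and peak intensity, scored viability of PE254-GFP-FLuc worms exposed to compound in S medium with bacterial capsules at 21 °C.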

[11] abbreviates: measured here: cell count channel max response.
[12] abbreviates: measured here: cell number channel AC50.
Setting [13] is: measured here: lipid (BODIPY) channel AC50.
The mark [14] stands for this setting: measured here: lipid channel max response.
Tags give direction and shape of the fitted curve.

As usually defined, the AC50 is the concentration at which the activity in the assay is half-maximal. On to `CC(=O)Oc1cc(OC(C)=O)c2c(=O)cc(-c3ccc(OC(C)=O)c(OC(C)=O)c3)oc2c1`, for which the max response in [1] (setting [11]) was determined as 49%; in [1] (setting [14]), 28.2%. The concentration at half-maximal activity (AC50) in assay [1] (setting [12]) was 22.4 µM [rising, partial curve, poor fit]; in assay [1] (setting [13]) it was 20 µM [rising, full curve, poor fit].
In the case of `COc1ccc2[nH]cc(CCNc3ncnc4ccc(-c5c(C)noc5C)cc34)c2c1`, the max response is 10.3% in assay [1] (setting [11]) and 12.7% in assay [1] (setting [14]). Further, the AC50 in [1] (setting [12]) is 0.316 µM [rising, full curve]; in [1] (setting [13]) it was 0.251 µM [rising, full curve].
Consider `CN1CCN(c2nc(-c3ccoc3)nc3ccccc23)CC1`, for which the max response in assay [1] (setting [11]) was 52.2%; in assay [1] (setting [14]) it was 60.1%. In addition, the half-maximal activity concentration (AC50) in assay [1] (setting [12]) is 2.82 µM [rising, full curve]; in assay [1] (setting [13]) it was 2.51 µM [rising, full curve, poor fit].
As to `CCNc1ncc2nc(-c3ccc(F)cc3)c(=O)n(Cc3ccc(F)cc3)c2n1`, the values for the max response in assay [1] (setting [11]) and in assay [1] (setting [14]) were 37.2% and 40.1%, respectively. In addition, the half-maximal activity concentration (AC50) in assay [1] (setting [12]) was 14.1 µM [rising, partial curve]; in [1] (setting [13]), 14.1 µM [rising, partial curve].
As to `COc1ccc(-c2coc3ccc(OC4OC(COC(C)=O)C(OC(C)=O)C(OC(C)=O)C4OC(C)=O)c(OC(C)=O)c3c2=O)cc1` (stereo not given), the results for the max response in assay [1] (setting [11]) and in assay [1] (setting [14]) were 43.6% and 50.2%, respectively. Further, the concentration at half-maximal activity (AC50) in [1] (setting [12]) is 10 µM [rising, partial curve, poor fit]; in assay [1] (setting [13]), 17.8 µM [rising, partial curve, poor fit].
For the molecule `N=C(N)SCCc1ccc(OCc2ccc([N+](=O)[O-])cc2)cc1`, the figures for the max response in [1] (setting [11]) and in assay [1] (setting [14]) were 51.6% and 66.2%, respectively. In addition, the AC50 in [1] (setting [12]) was 7.94 µM [rising, full curve, poor fit]; in assay [1] (setting [13]), 11.2 µM [rising, partial curve].
Consider `C[C@H]1[C@H](C)CC[C@]2(C(=O)O)CC[C@]3(C)C(=CCC4[C@@]5(C)CC[C@H](O)C(C)(C)[C@@H]5CC[C@]43C)[C@H]12` (stereo not given in full), for which the max response in [1] (setting [11]) was 81.4%; in assay [1] (setting [14]) it was 81.3%. In addition, the AC50 in assay [1] (setting [12]) is 35.5 µM [rising, partial curve, poor fit]; in assay [1] (setting [13]), 39.8 µM [rising, single point].
Turning to `COc1ncc2nc(-c3cc(F)cc(F)c3)c(=O)n(CCc3ccccc3)c2n1`, the max response in assay [1] (setting [11]) was -8.15%; in assay [1] (setting [14]), -3.32%. The AC50 is 4.47 µM [rising, partial curve, poor fit] in assay [1] (setting [12]) and 1.26 µM [rising, partial curve, poor fit] in assay [1] (setting [13]).
Take `O=C(c1cnccn1)N1CCC2(CC1)CCN(c1ncccn1)CC2`: the max response in [1] (setting [11]) worked out at 14.2%; in assay [1] (setting [14]) it was 25.6%. Moreover, the AC50 in assay [1] (setting [12]) was 3.98 µM [rising, single point]; in assay [1] (setting [13]), 3.55 µM [rising, partial curve].
Regarding `CCCCCCCCCCCCCCC/C=C/[C@@H](O)[C@H](NC(=O)CCCCCCCCCCCCC)OC` (tested in a mixture with another compound), the max response in [1] (setting [11]) is -4.8%; in assay [1] (setting [14]) it was -2.81%. Besides, the AC50 is 15.8 µM [falling, single point] in assay [1] (setting [12]) and 15.8 µM [falling, single point] in [1] (setting [13]).
As for `Cc1noc(C)c1-c1nc(NCCN2CCOCC2)c2ccccc2n1`, the max response in assay [1] (setting [11]) was determined as 31.8%; in assay [1] (setting [14]) it was 37.2%. Also, the AC50 in assay [1] (setting [12]) is 1 µM [rising, full curve]; in assay [1] (setting [13]), 1 µM [rising, full curve].
Regarding `Fc1ccc(Nc2ccnc(-c3ccccc3C(F)(F)F)n2)cc1`, the max response in assay [1] (setting [11]) turned out to be 21.5%; in assay [1] (setting [14]) it was 28%. Moreover, the AC50 is 1 µM [rising, full curve, poor fit] in assay [1] (setting [12]) and 1.41 µM [rising, full curve, poor fit] in [1] (setting [13]).
With `CC(=O)[C@@H]1[C@H]2[C@H](C(=O)[C@H]3OC[C@@H]2O3)[C@H]2C=Cc3ccccc3N21`, the max response in assay [1] (setting [11]) worked out at 67.7%; in assay [1] (setting [14]), 89.5%. The AC50 in assay [1] (setting [12]) was 25.1 µM [rising, partial curve]; in [1] (setting [13]), 25.1 µM [rising, partial curve].
Regarding `COc1ccccc1CNc1nc(-c2ccoc2)nc2ccccc12`, the max response in [1] (setting [11]) came out at 11.1%; in assay [1] (setting [14]), 14%. In addition, the concentration at half-maximal activity (AC50) in [1] (setting [12]) was 0.447 µM [rising, full curve, poor fit]; in assay [1] (setting [13]) it was 0.447 µM [rising, full curve, poor fit].
By IC50 is commonly meant the point on the concentration scale where inhibition reaches its midpoint. For the molecule `NC(=NCCCCCCN=C(N)/N=C(\N)Nc1ccc(Cl)cc1)/N=C(\N)Nc1ccc(Cl)cc1`, the max response was -30% and -102% in assay [1] (setting [11]); -48.8% and -109% in assay [1] (setting [14]); 42.3% and 52.9% and -70.1% in assay [4]; 42.9% and 8.06% in assay [5]. The half-maximal activity concentration (AC50) in [1] (setting [12]) is 12.6 µM [falling, single point] and 17.8 µM [falling, partial curve]; in assay [1] (setting [13]), 12.6 µM [falling, partial curve, poor fit] and 12.6 µM [falling, partial curve]; in [2] (measured here: W460 blue channel fit), 35.5 µM [falling, full curve, poor fit]; in assay [2] (measured here: W530 green channel, cytotoxicity/artifact), 44.7 µM [rising, single point]; in assay [3], 39.8 µM [falling, partial curve, poor fit]; in [6], 10 µM [falling, partial curve, poor fit]. Further, the half-maximal activity concentration (AC50) was 1.83 µM [falling, partial curve, poor fit] in assay [10] (day 7, measured here: worm number) and 16.3 µM [falling, partial curve, poor fit] in assay [10] (day 7, measured here: worm area, day 3). Moreover, the IC50 in assay [7] is 3.04 µM [falling, full curve]; in assay [8], 21.5 µM [falling, partial curve]; in assay [9], 15.2 µM [falling, partial curve].
For `COc1ccc(CNc2nc(-c3ccccc3OC)nc3ccccc23)c(OC)c1`, the max response in assay [1] (setting [11]) is -34.9%; in assay [1] (setting [14]), -87%. The concentration at half-maximal activity (AC50) in [1] (setting [12]) was 22.4 µM [falling, single point]; in assay [1] (setting [13]), 31.6 µM [falling, single point].
